# Some structures have more than one record in an assay (separate samples or runs), and their calls can disagree.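 Growth was measured after 48 h exposure to one concentration of compound in 96-well plates. Values under 10 count as active.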 Not every entry of the source has a single result; some have several. This is not the full list of results. There may be further records. These are repeated runs of one drug, at its own concentration, as given; one value stands for one run. Additions like (4×) say how often a value occurs here.
# Test system: OVCAR-5 ovarian
# Assay: NCI-60 one-dose screen, 48 h (100 = growth as untreated, 0 = no growth, -100 = all killed)
# Conditions: 0.25 µM
structure (smiles),measurement,setting,value
COc1cccc2c1C(=O)c1c(O)c3c(c(O)c1C2=O)C[C@@](O)(C(=O)CO)C[C@@H]3OC1CC(N)C(O)C(C)O1 (stereo partly specified),growth,runs of 2007,"inactive: 49.9, 63, 77, 71.3, 95.6, 102 (2×), 94.1 (2×), 106 (2×), 110 (3×), 96.6 (2×), 99.4, 92.3, 105, 128, 101, 86.3, 99.2, 97.8, 126, 80.4, 112, 107, 11.4, 98.6, 90.3, 88.9, 85.2, 125, 120, 95.1, 75.6, 88.5, 90.5%"
same,growth,runs of 2008,"inactive: 106, 97.9, 90.7, 100 (2×), 101 (3×), 102, 107 (3×), 105 (2×), 110, 115, 125, 85.6, 82.2, 86.1 (3×), 84.3, 80.5, 91.7, 88.9, 120, 96.8, 71, 79.9, 83.7, 96.6, 90, 30, 72.8, 67.9, 62.8, 78.5, 88.5, 92.1, 75.3, 96.3, 98, 126, 119, 96.7, 111 (2×), 96.2, 85.9, 95.2, 79.2, 89.1, 94.3%"
same,growth,runs of 2009,"inactive: 75.9, 76.5, 79.9, 75.1, 78.2 (2×), 94.7, 99.3, 107, 89.2, 86, 105 (3×), 98.5, 89.1, 91.8 (2×), 85.6, 88.7, 86.3, 93.7 (2×), 68.9, 92.2, 82, 74.7, 69.8, 84.5 (2×), 74, 83, 82.8, 97.6, 74.9, 72.2, 61.2, 78, 77.6, 78.4, 91, 86.8, 101 (3×), 84.3, 77.4, 79.3, 91.5, 97.9, 102 (2×), 89.9, 125, 115, 100, 114 (2×), 94, 109, 96.3%"
same,growth,runs of 2010,"inactive: 114 (3×), 94.7, 88.1, 92.1, 96.2 (2×), 115 (2×), 106 (3×), 107 (2×), 100 (2×), 94.3, 95.1, 119, 102 (2×), 88.9, 83.1, 91.3, 68, 89.7, 96.5, 84, 89.3, 80.6, 116, 93.9, 85.1, 73.6, 91, 109, 96.8, 99.7, 105 (3×), 88.5, 85.8, 92.4, 110%"
same,growth,runs of 2011,"inactive: 109 (3×), 111, 107 (3×), 114, 119, 82.8, 75.7, 95, 90.2, 90.3 (2×), 93.1, 94.5, 101 (5×), 97.7, 98.6 (2×), 92.4, 94.1, 99.7, 91.2, 77.7, 86.8, 99.4 (2×), 92.1, 82.2, 90.8, 92.3 (2×), 98.4, 97.9 (2×), 100, 113, 90.1, 71.2, 94.9, 83.2, 97.3, 88.5, 90.7, 86.6%"
same,growth,runs of 2012,"inactive: 98, 85.8, 94.2 (2×), 95, 95.4, 86.6, 98.9, 99.7, 102 (5×), 106, 93.5, 97.2, 77.7, 96.2, 107 (3×), 97.1, 82.2, 93.9, 88.9, 83.8, 96.8, 94.7, 98.3, 98.7, 91.1, 98.6, 110 (2×), 112, 98.4 (2×), 87.8, 100, 116, 105, 111, 96.1, 99.1, 92.9, 89.9 (2×), 91.6, 89.8, 93.7, 92.6, 87.5, 69.1, 74.6, 89%"
same,growth,runs of 2013,"inactive: 74.3 (2×), 84.3, 82.3, 76.3, 76.5, 88.6, 81.4, 82.4, 86.6, 87.5, 79.2, 88.1, 80, 85.1, 83.8, 85.6, 97.6, 96.6, 94.9, 106 (2×), 102 (2×), 112, 107, 110, 98.7, 98.9, 111 (5×), 113 (3×), 109, 120, 118, 94.6, 98.1, 98.6, 91.6, 92.4, 101 (4×), 94.4, 94.7, 117 (2×), 89.5, 87.7, 83.5, 80.4, 74.7, 71.8, 73.8, 69.8, 69.4, 55.8, 58.3, 63, 72.3, 69.7, 73.6, 67%"
same,growth,runs of 2014,"inactive: 74, 78.4, 71, 63.4, 60.3, 79.3, 81.2, 50.7, 61.7, 60.2, 74.4 (2×), 56.9, 77.8, 72.4, 91.6, 81.5, 83.1 (3×), 89.5, 81.7, 93.1, 82.2, 74.8, 71.7 (2×), 70.6, 74.2, 71.1, 65.3, 69.6, 67.2 (2×), 64.4, 71.2, 64.7 (3×), 65.4, 72.2, 64.5, 61.9, 62.2, 52.5, 63.9, 59.4, 70.3, 64.9, 50.2, 60.6, 66.5, 71.4, 64.8, 60.8, 65.8, 63.1 (2×), 58.2, 58.8, 66, 69.8, 70.7, 62.6, 53.8, 68.6, 73.2, 76.1, 73.8, 71.6, 67.5, 92.5, 86.1, 80.7, 87.8, 68.2, 68, 95.6, 67.9%"
same,growth,runs of 2015,"inactive: 68.6 (2×), 71.2 (2×), 85.2, 74.8 (2×), 65.6, 71.7, 63, 77.5, 64.4, 86, 89.3, 74.1 (2×), 80.6, 91.3, 71.8, 61.3, 58.2, 56.9, 64.8, 60.3, 64.2 (2×), 70, 85.8, 69.8, 70.5, 62.4, 63.1, 74.2, 79, 84.5, 83.3, 83.7, 82.7, 83.1, 79.3, 77.7, 75.9, 82, 79.6, 88.6, 76.1, 75.1, 65.4, 71.3, 66.6, 74, 72.9, 73.6, 65.9, 85.6, 94.7, 79.2, 78.2, 95.4, 81, 87.4, 72.6, 90.7, 94.8, 86.7, 82.8, 77.6, 78.8 (3×), 75.8, 86.4, 77.4, 76.3, 70.2, 74.9, 70.7, 77.8, 80.4, 72.4, 86.9, 78.1, 81.8, 87.5%"
same,growth,runs of 2016,"inactive: 83.3 (2×), 82.9, 98.2 (2×), 94.8, 99.3, 71.2, 76.5, 85, 81.8, 87.7, 77.1, 83.1, 75, 86.4, 69.6, 82.4, 91.5 (2×), 77.6, 74.8, 83, 90.2, 92.4, 78.4, 75.4, 63.3, 83.4, 90.4, 69.2, 70.3, 73.5, 80.2, 69.7, 84.7, 88.6, 96.6, 80, 94.6 (3×), 85.1, 82.2, 85.4, 84.5, 85.9, 93.2, 91.8 (2×), 89.7 (2×), 84.3, 85.8, 93.1, 90.8, 91.1, 93.8, 89.1, 93.3, 97.8, 98.5, 94.1 (2×), 95.1, 102 (2×), 99.4, 91.7, 89.3, 95, 94.4, 98.1, 87.8, 94.2, 101%"
same,growth,runs of 2017,"inactive: 85.5 (2×), 87.9, 83.2, 88, 84.5, 89.3, 74.8 (2×), 72.5, 78, 85, 81.2 (3×), 78.2, 76.9 (2×), 76.6, 75.8 (3×), 83, 83.3 (2×), 76.3 (2×), 73.2, 77.3, 82.6 (2×), 78.4, 73.3, 78.8, 92.4, 75, 87.2, 70.7, 75.2 (2×), 74.2 (2×), 86.4, 72.8, 75.3, 70.3, 77.4, 76.7 (2×), 77.7, 81.5, 85.8 (3×), 76, 79.6, 87 (2×), 90.3, 69.2, 71.8, 69.3, 69.9, 79.9, 96.7, 77.1, 77.8, 78.5, 94.6, 73.8, 71.7, 81.7, 84.3, 72.6, 74, 81.1, 91.1, 78.3, 78.1, 75.7%"

# — PubChem BioAssay (NCI)
